From patent US20230293588A1 (RUBIUS THERAPEUTICS, published 2023) come the findings set out here.

In this experiment the target is 41-BB receptor on cells (T-cells of PBMCs; Jurkat cells overexpressing 41-BB and NFkB-Luc2P) (UniProt Q07011 24-255). Put plainly: cell-based or functional assay.

B1: 41-BB-L expressed on RCTs (RCT-41-BB-L) (ligand)
chain: not shown
Regarding B1, the NFkB-mediated luciferase expression stood at 30 fold and the T-cell proliferation turned out to be 1.7 fold.
